# Measurements as given in PubChem BioAssay AID489012 (National Center for Advancing Translational Sciences (NCATS), 2010).
# Inconclusive means that the source gave no clear call. Such entries were picked first, then a sample of the others. Potencies of inconclusive entries are doubtful fits and often do not repeat. Calls of active or inactive are those of the source. Calls come from the whole dose curve; as a rule, active = well fitted activation curve with a large enough effect; inconclusive = small, poorly fitted or top-dose-only effect; inactive = no such curve, though single readings can be large or run the other way.
# Molecular target: Relaxin receptor 1 (Homo sapiens) (UniProt Q9HBX9)
# Chain of UniProt Q9HBX9 (Q9HBX9 whole entry, looked up): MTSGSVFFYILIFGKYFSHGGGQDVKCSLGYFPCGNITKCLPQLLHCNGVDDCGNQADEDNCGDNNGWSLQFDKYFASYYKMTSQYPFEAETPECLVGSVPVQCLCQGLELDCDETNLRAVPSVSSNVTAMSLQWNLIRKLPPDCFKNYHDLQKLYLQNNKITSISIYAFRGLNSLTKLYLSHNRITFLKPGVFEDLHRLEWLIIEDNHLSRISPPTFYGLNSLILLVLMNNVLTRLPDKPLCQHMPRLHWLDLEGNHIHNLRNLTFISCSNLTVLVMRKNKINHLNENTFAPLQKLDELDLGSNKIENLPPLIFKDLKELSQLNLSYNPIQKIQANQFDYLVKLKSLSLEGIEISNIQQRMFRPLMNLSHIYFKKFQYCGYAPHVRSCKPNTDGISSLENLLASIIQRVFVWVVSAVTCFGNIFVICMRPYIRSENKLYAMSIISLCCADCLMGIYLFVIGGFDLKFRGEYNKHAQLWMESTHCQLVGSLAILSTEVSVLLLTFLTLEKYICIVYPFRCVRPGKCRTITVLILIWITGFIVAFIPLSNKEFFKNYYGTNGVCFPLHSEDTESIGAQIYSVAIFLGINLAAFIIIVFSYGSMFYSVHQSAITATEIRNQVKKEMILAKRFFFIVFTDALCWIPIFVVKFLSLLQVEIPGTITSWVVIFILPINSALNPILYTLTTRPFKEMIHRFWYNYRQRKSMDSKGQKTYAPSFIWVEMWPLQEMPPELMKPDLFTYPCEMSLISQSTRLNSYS
# Assay: qHTS Assay for Agonists of the Relaxin Receptor RXFP1: RXFP1 Hit Validation; note: nearly all actives have a fitted effect of over 65% in size;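 for activation: cAMP rise lowers the TR-FRET signal in lysed cells with PDE4 inhibitor present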
# Conditions: HEK293T-RXFP1 cAMP TR-FRET, 30 min; series mostly up to 45 µM
# Source text: NIH Chemical Genomics Center [NCGC] NIH Molecular Libraries Probe Production Centers Network [MLPCN] MLPCN Grant: R03 MH085705-01A1 Assay Submitter (PI): Alexander Agoulnik NCGC Assay Overview: The relaxin hormone is involved in the variety of biological functions in normal tissues and diseases. The role of relaxin is well-established in female reproduction and parturition, mammary gland and endometrial development, maintenance of myometrial quiescence during pregnancy. Relaxin signaling through its G protein-coupled receptor (GPCR) RXFP1 results in ECM remodeling through regulation of collagen deposition, cell invasiveness, proliferation and overall tissue homeostasis. […] Recombinant human relaxin (rhRlx) is currently being tested in clinical trials as a protective agent in congestive heart failure, in treating severe preeclampsia, and as an anti-fibrotic agent in systemic sclerosis. Upon relaxin binding RXFP1 activation leads to the activation of adenylate cyclase (AC) via Gs. cAMP will activate PKA, which phosphorylates many signaling proteins. Thus, detection of cAMP increase is an easy and reliable indication of relaxin receptor activation. To screen for agonists of the relaxin receptor, a HEK293T cell line stably transfected with RXFP1 was used. RXFP1 activation was assayed by changes in cAMP levels as detected with a time-resolved fluorescence energy transfer (TR-FRET) cAMP detection kit.
# NCGC Assay Protocol Summary: This is a cell-based assay for cAMP second messenger response to screen for agonists of the RXFP1 receptor. The assay was conducted in the presence of a PDE4 inhibitor (Ro 20174). The cells were lysed and the cAMP levels were measured with a TR-FRET cAMP kit. Presence of cAMP in the cell lysate disrupts binding between the cryptate-labeled anti-cAMP and d2-labeled cAMP pair, leading to a decrease in the TR-FRET signal. Data were normalized to the controls for basal activity (buffer only) and 100% activity (29 nM porcine relaxin). The EC50 values were determined from concentration-response data modeled with the standard Hill equation 1536-well assay protocol for the HEK293 RXFP1 cAMP assay: (1) Add 3 ul HEK293 RXFP1 cell culture. 2000 cells/well in DMEM/F12, 10% FBS, 1x Pen/Strep (dispensed offline with MultiDrop Combi). (2) Incubate 16-24 hr at 37C, 5% CO2. (3) Add 1 ul 400uM Ro20174 in DPBS, 0.05% BSA, 0.005% Tween 20. (3) Add 23 nl compounds in DMSO solution. Final concentration was 0.5 - 58 uM. (4) Incubate 30 min at 37C, 5% CO2. (5) Add 1 ul cAMP-d2 in lysis buffer (HTRF cAMP HiRange kit, CisBio). (6) Add 1 ul anti-cAMP antibody-cryptate in lysis buffer (HTRF cAMP HiRange kit, CisBio). (7) Incubate 30 min at room temperature. […] Keywords: relaxin, RXFP1, RXFP2, G-protein coupled receptor, cAMP, agonist, high throughput screening, MLSMR, MLSCN, NIH Roadmap, qHTS and NCGC
# Potency is the fitted concentration of half-maximal effect; tags give direction and shape of the fitted curve.
row,Compound,Potency
1,CCNC(=O)[C@H]1O[C@@H](n2cnc3c(N)ncnc32)[C@H](O)[C@@H]1O,active: 0.308 µM
2,O=C1OCc2cc(N=Nc3c(O)[nH]c(=O)[nH]c3=O)ccc21,"inconclusive: 19.4 µM [activator, partial curve]"
3,Nc1ncc2[nH]cnc2n1,active: 13.8 µM
4,O=c1[nH]c(O)c(N=Nc2ccc([N+](=O)[O-])cc2)c(=O)[nH]1,"inconclusive: 19.4 µM [activator, partial curve]"
5,CCC(Oc1cc(Cl)ccc1Cl)C(=O)N1CCC2(CC1)OCCO2 (stereo not drawn),inactive
6,Cn1c(O)c(N=Nc2cccc(S(=O)(=O)N3CCOCC3)c2)c(=O)n(C)c1=O,"inconclusive: 17.3 µM [activator, partial curve]"
7,O=C(O)c1sc2cc(Cl)ccc2c1Cl,inactive
8,Cc1ccc(-c2nn3c(C)nnc3c3ccccc23)cc1S(=O)(=O)NCCO,"inconclusive: 34.6 µM [activator, partial curve]"
